The list shows a part of the results. Sequences were assembled here from the parent chain. Values near 0.05 are background.
B1: TEV protease; numbered along this chain (parent)
chain: MGESLFKGPRDYNPISSSICHLTNESDGHTTSLYGIGFGPFIITNKHLFRRNNGTLVVQSLHGVFKVKDTTTLQQHLVDGRDMIIIRMPKDFPPFPQKLKFREPQREERICLVTTNFQTKSMSSMVSDTSCTFPSGDGIFWKHWIQTKDGQCGSPLVSTRDGFIVGIHSASNFTNTNNYFTSVPKNFMELLTNQEAQQWVSGWRLNADSVLWGGHKVFMVKPEEPFQPVKEATQL

Variants of: B1
Assay: raw area under fraction-flipped curve 0-4 h after induction (AUC4h, not background-subtracted), DNA-recorder readout of cleavage of the substrate (dimensionless); higher = more cleavage of the substrate by the protease variant
Conditions: temperature: 34 °C; time window: 0-4 h after rhamnose induction
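Note: Bxb1 expression induced with 0.2% (w/v) L-rhamnose at OD600 near 0.5, cultures sampled hourly, flipped fraction per protease–substrate barcode pair counted by paired-end Illumina sequencing.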

| Variant | area with substrate ENLYFQG | area with substrate ENLYFQI | area with substrate ENLYFQL | area with substrate ENLYFQR | area with substrate ENLYFQS | area with substrate ENLYFQT | area with substrate ENLYFQV | area with substrate ENLYFQH | area with substrate ENLYFQK | area with substrate ENLYFQM | area with substrate ENLYFQW | area with substrate ENLYFQY | area with substrate ENLYFQN | area with substrate ENLYFQP |
| --- | --- | --- | --- | --- | --- | --- | --- | --- | --- | --- | --- | --- | --- | --- |
| MGESLFKGPRDYNPISSSICHLTNESDGHTTSLYGIGFGPFIITNKHLFRRNNGTLVVQSLHGVFKVKDTTTLQQHLVDGRDMIIIRMPKDFPPFPQKLKFREPQREERICLVTTNFQTKSMSSMVSDTSCTFASGDGIFWKHWIQTKDGQCGSPLVSTRDGFIVGIHSASNFTNTNNYFTSVPKNFMELLTNQEAQQWVSGWRLNADSVLWGGHKVFMVKPEEPFQPVKEATQL [P134A] | 0.0915 | 0.0487 | 0.0536 | 0.0583 | 0.0959 | 0.0682 | 0.0687 | – | – | – | – | – | – | – |
| MGESLFKGPRDYNPISSSICHLTNESDGHTTSLYGIGFGPFIITNKHLFRRNNGTLVVQSLHGVFKVKDTTTLQQHLVDGRDMIIIRMPKDFPPFPQKLKFFEPQREERICLVTTNFQTKSMSSMVSDTSCTFPSGDGIFWKHWIQTKDGQCGSPLVSTRDGFIVGIHSASNFTNTNNYFTSVPKNFMELLTNQEAQQWVSGWRLNADSVLWGGHKVFMVKPEEPFQPVKEATQL [R102F] | 0.0546 | – | 0.0508 | – | 0.0548 | – | – | 0.0476 | 0.0528 | 0.0596 | 0.0462 | 0.0436 | – | – |
| MGESLFKGPRDYNPISSSICHLTNESDGHTTSLYGIGFGPFIITNKHLFRRNNGTLVVQSLHGVFKVKDTTTLQQHLVDGRDMIIIRMPKDFPPFPQKLKFREPQREERICLVTTNFQTKSMSSMVSDTSCTFPSGDGIFWKHWIQTKDGQCASPLVSTRDGFIVGIHSASNFTNTNNYFTSVPKNFMELLTNQEAQQWVSGWRLNADSVLWGGHKVFMVKPEEPFQPVKEATQL [G153A] | 0.0593 | 0.0615 | – | – | 0.0604 | – | 0.0506 | – | 0.0607 | – | 0.0263 | – | – | – |
| MGESLFKGPRDYNPISSSICHLTNESDGHTTSLYGIGFGPFIITNKHLFRRNNGTLVVQSLHGVFKVKDTTTLQQHLVCGRDMIIIRMPKDFPPFPQKLKFREPQREERICLVTTNFQTKSMSSMVSDTSCTFPSGDGIFWKHWIQTKDGQCGSPLVSTRDGFIVGIHSASNFTNTNNYFTSVPKNFMELLTNQEAQQWVSGWRLNADSVLWGGHKVFMVKPEEPFQPVKEATQL [D79C] | 0.0983 | 0.0576 | – | 0.0678 | 0.102 | – | 0.0577 | 0.0697 | 0.0486 | – | – | – | 0.066 | – |
| MGESLFKGPRDYNPISSSICHLTNESDGHTTSLYGIGFGPFIITNKHLFRRNNGTLVVQSLHGVFKVKDTTTLQQHLVDGRDMIIIRMPKDFPPFPQKLKFREPQREERICLVTTNFQTKSMSSMVSDTSCTFPSGDGIFWKHWIQTKDGQCGSPLVSTRDGFIVGIHSASNFTNTNNYFTSVPKNFQELLTNQEAQQWVSGWRLNADSVLWGGHKVFMVKPEEPFQPVKEATQL [M188Q] | 0.0843 | 0.0519 | 0.0704 | 0.0672 | 0.0998 | 0.0517 | – | – | 0.0682 | – | 0.0876 | – | 0.0658 | – |
| MGESLFKGPRDYNPISSSICHLTNESDGHTTSLYGIGFGPFIITNKHLFRRNNGTLVVQSLHGVFKVKDTTTLNQHLVDGRDMIIIRMPKDFPPFPQKLKFREPQREERICLVTTNFQTKSMSSMVSDTSCTFPSGDGIFWKHWIQTKDGQCGSPLVSTRDGFIVGIHSASNFTNTNNYFTSVPKNFMELLTNQEAQQWVSGWRLNADSVLWGGHKVFMVKPEEPFQPVKEATQL [Q74N] | 0.118 | – | 0.0729 | – | 0.116 | – | – | – | 0.0744 | – | 0.0548 | – | – | – |
| MGESLFKGPRDYNPISSSICHLTNESDGHTTSLYGIGFGPFIITNKHLFRRNNGTLVVQSLHGVFKVKDTTTLQQHLVDGRDMIIIRMPKDFPPFPQKLKFREPQREERICLVTTNFQTKSMSSMVSDTSCTFPSGDGIFWKHWIQTKDGQCGSPLVSTRDGFIVYIHSASNFTNTNNYFTSVPKNFMELLTNQEAQQWVSGWRLNADSVLWGGHKVFMVKPEEPFQPVKEATQL [G166Y] | 0.0261 | – | 0.029 | 0.0496 | 0.0536 | 0.0292 | 0.0454 | – | 0.0495 | – | 0.0322 | – | 0.0442 | – |
| MGESLFKGPRDYNPISSSICHLTNESDGHTTSLYGIGFGPFIITNKHLFRRNNGTLVVQSLHGVFKVKDTTTLQQHLVDGRDMIIIRMPKDFPPFPQKLKFREPQREERICLVTTNFQTKSMSSMVSDTSCTFPSGDGIFWKHWIQTKDGQCGSPLVSTRDGFIVGIHSASNFTNTNNYFTSVPKNFMELLTNQEAQQWVSGWRLNADSVLWGGHKVFMVKPEEPFQPVREATQL [K230R] | 0.0828 | – | 0.0687 | 0.0524 | 0.109 | 0.0517 | – | – | – | – | 0.0632 | – | – | – |
| MGESLFKGPRDYNPISSSICHLTNESDGHTTSLYGIGFGPFIITNKHLFRRNNGTLVVQSLHGVFKVKDTTTLQQHLVDGRDMIIIRMPKDSPPFPQKLKFREPQREERICLVTTNFQTKSMSSMVSDTSCTFPSGDGIFWKHWIQTKDGQCGSPLVSTRDGFIVGIHSASNFTNTNNYFTSVPKNFMELLTNQEAQQWVSGWRLNADSVLWGGHKVFMVKPEEPFQPVKEATQL [F92S] | 0.0734 | 0.0612 | 0.0613 | 0.0547 | 0.0907 | – | – | – | – | 0.0891 | 0.0662 | – | 0.0799 | 0.0735 |
| MGESLFKGPRDYNPISSSICHLTNESDGHTTSLYGIGFGPFIITNKHLFRRNNGTLVVQSLHGVFKVKDTTTLQQHLVDGRDMIIIRMPKDFPPFPQKLKFREPQREERICLVTTNFQTKSMSSMVSDTSCTFPSGDGIFWKHWIQTKDGQCGSPLVSTRDGFIVGMHSASNFTNTNNYFTSVPKNFMELLTNQEAQQWVSGWRLNADSVLWGGHKVFMVKPEEPFQPVKEATQL [I167M] | 0.059 | – | 0.0591 | 0.052 | 0.0895 | 0.0708 | 0.0557 | – | – | – | 0.0611 | 0.0442 | – | 0.0484 |
| MGESLFKGPRDYNPISSSICHLTNESDGHTTSLYGIGFGPFIITNKHLFRRNNGTLVVQSLHGVFKVKDTTTLQQHLVDGRDMIIIRMPKDFPPFPQKLKFREPQREERICLVTTNFQTKSMSSMVSDTSCTFPSGDEIFWKHWIQTKDGQCGSPLVSTRDGFIVGIHSASNFTNTNNYFTSVPKNFMELLTNQEAQQWVSGWRLNADSVLWGGHKVFMVKPEEPFQPVKEATQL [G138E] | 0.138 | 0.0542 | – | 0.0562 | 0.101 | 0.0415 | – | – | – | 0.0847 | – | 0.0593 | – | 0.0506 |
